In article PMC10726135:
The other results are listed elsewhere or left out. At the low end of the ranking, values are background and their order means little. The protein was read in a cell extract, so binding may be indirect.

Molecular target: T1, HNF4alpha8 (COS-7 nuclear extract) (UniProt P41235-5)
T1 sequence: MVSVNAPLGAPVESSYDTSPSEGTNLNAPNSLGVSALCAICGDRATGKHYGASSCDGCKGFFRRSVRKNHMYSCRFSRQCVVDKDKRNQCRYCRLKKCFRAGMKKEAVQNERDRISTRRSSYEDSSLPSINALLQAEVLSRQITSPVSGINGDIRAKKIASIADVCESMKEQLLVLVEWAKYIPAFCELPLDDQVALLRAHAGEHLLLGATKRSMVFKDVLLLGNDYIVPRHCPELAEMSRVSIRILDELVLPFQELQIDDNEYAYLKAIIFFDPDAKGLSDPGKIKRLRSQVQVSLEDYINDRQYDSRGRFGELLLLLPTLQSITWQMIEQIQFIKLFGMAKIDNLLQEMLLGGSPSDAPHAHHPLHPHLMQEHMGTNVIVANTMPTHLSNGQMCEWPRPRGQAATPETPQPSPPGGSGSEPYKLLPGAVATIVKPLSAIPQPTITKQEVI
Assay: protein-binding microarray
Conditions: COS-7 nuclear extract on double-stranded Agilent 4x180k PBM; binding buffer, salt, pH and temperature not given; high values mean tight binding; double strand, one strand shown; sequences stand for … in …GCCTAGGGAGATTAGAGTATCGGTCGA

Sequence | binding signal (log2 normalized intensity)
TTTTCAATCTTATTTTTACTATGTGGCATT | 1.35
CTCCCACCTCAGCCTCTTGAGTAGCTGGGA | -1.27
AAAGATTGCAGCAAGGAATTCAACCCTTGT | 2.23
AGAAGCAAATGAAAAGAATATCTCAGCAGC | -1.21
TGGCAAGGCAGCCTCAGCCACACGCCCATC | -1.33
CCTATGTCCCCCGACCCGCCCGACTACAAC | 5.28
GCTCTTGGCTAAGACAGGGGCTATTTCTGA | -1.29
GCAAACCAGATAAGACTATCTCATGACAGA | -0.923
AAAGAGCAGATGTGTCTTTATAACAGACTG | -0.498
TCCCACTCCCCTCCTCCAGATGGGCTCATG | 3.76
TTTCTCTTATAGCTCAACCCCCAAAACTGC | 4.94
CTTATTTATCTTCACATTCCATCATCACGG | 0.518
AGGCCTGAAATTTGGCCTGCTGAGCCCAAT | -1.02
AACCTTTGCCCCTGGAGGGAGACATTATCT | 4.87
CAACTCAACCCTGGCATAGCATGCCACGAT | -1.22
AATGGAGCAAAGGTCATCCTGGGCTACCGA | 5.44
TCTGCAAGTGAAAAAAATCCTTTTATTTAT | -0.773
CCAGTCCAGATATAGGGGAGGTCCTAAAGA | -1.26
GAAAAGGGAGTAAAGGTCACGCAGGCCACC | 4.32
CCTTGGGTCTGTAATCTCACAACTCAGAAG | -0.129
TCTGGGCAAAGTTCACCAGGAAGCAAGACA | 3.55
TATCTCCTATGAGCCAAACACCATGCTAGG | -1.35
AAAGGGAGCATATGTATGTCAGAGTATGTG | 1.6
TTGTACTCAGTATGTGCTGACTGACTCCTG | 0.909

Sequence | binding signal (log2 normalized intensity)
AATTTCAGTATTAATGTCAAACTGATCAGA | 1.8
TCCTGATCCCTGAGGTCGGGGCCTGGTCTG | 0.856
TTATTTGAACACAGTTCGAACAGTTGGCCA | 1.78
GGACCCGCGCAGCCAATAGGCGAGGACGCA | -1.34
CCCATCCAAAGGTCAGCAATCTCAAAGACT | 3.51
AATGACATTCAGCAACTGGGTTCAGTTACG | 0.966
TGTACTGTAAACCTAGGTAGTGGACTCTAA | 4.28
ATCAAAGGTAGATGAATCCACAAAGATAAG | -1.1
TCATTTACAGAATTTCTCAGATGCCAGCTA | -1.53
CTTTTGCCCCCAGGCTGCAAACCTGTACAG | 3.7
GTTGATCTGGATGCCTCACCTGGCAAGGCA | -1.28
ATTACTGCACCCCCTTCCCACCTGCTGTCC | 5.02
CATTTCAAGGCTGGCTGAGTTCCCTTACAG | -1.27
ATCTTTTTACTGAGACTTAACAGTCACTCA | -1.24
TGACTTCTTTCGCTGTAGAAAGTGGTTTCA | 0.357
TCCTAGAGAAAGGGGCTTAGGGAGGGTGAA | -1.21
GGTGTGGTTAATGATTATGCCTCTGTGACC | 2.59
TCTTTCAAGATAACAAGGCAAACTTTATCA | -0.554
AACCAAAGGAATTTAGCCTTTAACCTGCAG | 2.61
CGCTGCGGGTCACGTGCCGCTGCGGGTCAC | 2.61
TGAAATTCTGGACTTTCAACAGAGGGCCTC | 3.56
CTCACCTCTGGCCAGAGAGATGTCAGCCCA | 0.58
AGCGGGCTTAACTAGGAGCCTGCACGCCTG | -1.3
AAGGGAGCAAAGTGCATTTGATAAGGGTAT | 3.12

Sequence | binding signal (log2 normalized intensity)
GGTAGGCAGCCTCTGAGATGGACTCCAGTG | 2.82
TTGCCTAAGACATGCTCGCAGCTGCATAGA | -1.21
CGGATGGCCGTGGGTGGAAGGAAAAGAGGA | -1.28
AGAAAAAAATGAGTCACAATATCAGTCTTT | -0.445
CAACTCTAGGAGCATGTCAAAAGCTAAATA | -1.26
AGAGACAGTGGAATCTACAGAATTCTCATG | -1.36
GGGATTTTCTCAGCTCTCCTCTGCCTCCAG | -1.23
CACCTTTACCCCCACTCTCCGCTGGCCTGT | 4.34
CCTTCCCCTTTTTCTGTAAAGCTTTATTTT | 1.42
AGCACACCTTTTTTTCATGCAAATTTCCGT | 0.475
CAGGGGAGAGAGGCAAGATCCGAAGTCTAG | -1.28
GTTTGATCACAAGACATGAAGATGCAGAAC | -1.26
TCTTTGCTCTCCTCCTAATCACTGCCCTTT | 4.32
TGTTAATGGCACTTCGTTTCAAAGTCCAGT | 5.24
GGTGGGTGGGAAGGGATCAGAAATTGATTT | -0.702
GACACCCGCTGGCGCCATCCAAAGGCCCGA | -1.19
GGAATGGGTATAACCTTCTTCTATGCCCTC | 2.85
CAGTAAGTTTACTTCATCTAAGTGGGTCTA | 1.5
AGTGCGATGATCATGGCTCACTGCACCTTG | 0.737
AAGTTTCAGGCTATGAATGAAGTCTTTTCC | -0.0319
GCTGACCCTCTCCCCACCATTAACCCTACA | 4.09
TAACATCTAAGATTGGCCCTGATAATCAAT | -1.21
GGGTCATGGAGCTGGAGGGCAAAGGTCAGA | 8.54
TGCCCTGGATCTTGAAGCAGAAAACCACTG | -1.47

Sequence | binding signal (log2 normalized intensity)
AATCCAGACACTTTGGCTCCAGAGTCCACA | 3.15
AAGCATACAGATTACATCTCCAGCTTATCT | -1.39
CATTCTGCTGCTCTTTAATCCTAATAATCC | -0.0986
TTGGACTCTGCCCTTGGCCTACTTAGTCCA | 4.47
TCTGCTTCCTGCTACAGAGCTCAGATTTCA | -1.3
GAGGCCCTCTGTTGCTTCAAAGGGCAAAAG | 2.21
GACCCTGGGCTTAGTTGCTCGCTCCTTAGG | -0.962
AGATACTCACCAGTGGGCCCAGAGCACAAC | -1.28
CTGTGACCATCTCCTTTTGTGAGAGGTCAA | 3.59
TTGCTTTTCACAGTCGATCTTTGACCGCTG | 6.09
ATCTAAGATTCCCCCTACCCTCAATATCTG | 4.26
TACAGGTGAATTTCAGTGCCCTTTGAGATT | 4.04
TTGCCATTGTACAGGTTCCCTCATGATTTA | 0.89
TTGCCTTGTTTGTTTTGAGGGTTAAAGGAG | 1.63
ATACGATAATGTCAAACATCTTATATCAAC | -0.453
ATCTGGAGGGGGCAGGACAGCAGGAGTGGG | -1.33
TCAAAGAATTTAACACCAGATAAACAGAAG | -0.982
CATAAAAGTTCTCATGCTAAAAGTTGAATT | -0.111
CCCAGTTCATAGGTCAATTCTTTGAAGTCT | 3.86
AAGATCATTCCAGGAATGTTCAAGAAGTTC | 0.0918
GCCTGGCAAGACTTCTTCAGGGAGACTTCC | -1.22
